# The supplement of paper PMC8728848
# The other results are listed elsewhere or left out.
# Assays:
# Assay in all cases: glycan array binding signal (z-score within array); higher = stronger binding
# Details in all cases: glycan notation: IUPAC condensed, linker removed
# [1] = target: GlcNAc(b1-3)Gal(b1-4)GlcNAc(b1-3)Gal(b1-4)GlcNAc(b1-3)GalNAc
# Summary of the method: (§1)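 The binding signal is a Z-score computed within each array and averaged over linkers. Arrays of the same protein sequence at different concentrations or buffers were also averaged together. Data originate from 3228 arrays in the Consortium for Functional Glycomics database, kept only where the protein sequence was available.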
# [2] = target: GlcNAc(b1-3)Gal(b1-4)GlcNAc(b1-3)GalNAc
# Summary of the method: as §1
# [3] = target: GlcNAc(b1-3)Gal(b1-4)GlcNAc(b1-3)[GlcNAc(b1-3)Gal(b1-4)GlcNAc(b1-3)]GalNAc
# Summary of the method: as §1
# [4] = target: GlcNAc(b1-3)Gal(b1-4)GlcNAc(b1-6)[Gal(b1-3)]GalNAc
# Summary of the method: as §1
# [5] = target: GlcNAc(b1-3)Gal(b1-4)GlcNAc(b1-6)[GlcNAc(b1-3)Gal(b1-3)]GalNAc
# Summary of the method: as §1
# [6] = target: GlcNAc(b1-3)Gal(b1-4)GlcNAc(b1-6)[GlcNAc(b1-3)]Gal(b1-4)GlcNAc
# Summary of the method: as §1
# GlcNAc(b1-3)GalNAc = target: GlcNAc(b1-3)GalNAc
# Summary of the method: as §1
# GlcNAc(b1-3)Man = target: GlcNAc(b1-3)Man
# Summary of the method: as §1
# [7] = target: GlcNAc(b1-3)[GlcNAc(b1-4)][GlcNAc(b1-6)]GlcNAc
# Summary of the method: as §1
# [8] = target: GlcNAc(b1-3)[GlcNAc(b1-6)]Gal(b1-4)GlcNAc
# Summary of the method: as §1
# [9] = target: GlcNAc(b1-3)[GlcNAc(b1-6)]GalNAc
# Summary of the method: as §1
# [10] = target: GlcNAc(b1-4)Gal(b1-4)GlcNAc
# Summary of the method: as §1
# GlcNAc(b1-4)GlcNAc = target: GlcNAc(b1-4)GlcNAc
# Summary of the method: as §1
# [11] = target: GlcNAc(b1-4)GlcNAc(b1-4)GlcNAc
# Summary of the method: as §1
# [12] = target: GlcNAc(b1-4)GlcNAc(b1-4)GlcNAc(b1-4)GlcNAc(b1-4)GlcNAc
# Summary of the method: as §1
# [13] = target: GlcNAc(b1-4)GlcNAc(b1-4)GlcNAc(b1-4)GlcNAc(b1-4)GlcNAc(b1-4)GlcNAc
# Summary of the method: as §1
# [14] = target: GlcNAc(b1-4)[GlcNAc(b1-6)]GalNAc
# Summary of the method: as §1
# [15] = target: GlcNAc(b1-6)Gal(b1-4)GlcNAc
# Summary of the method: as §1
# GlcNAc(b1-6)GalNAc = target: GlcNAc(b1-6)GalNAc
# Summary of the method: as §1
# [16] = target: GlcNAc6S(b1-3)Gal(b1-4)GlcNAc
# Summary of the method: as §1
# Kdn(a2-3)Gal(b1-3)GalNAc = target: Kdn(a2-3)Gal(b1-3)GalNAc
# Summary of the method: as §1
# Kdn(a2-3)Gal(b1-3)GlcNAc = target: Kdn(a2-3)Gal(b1-3)GlcNAc
# Summary of the method: as §1
# Kdn(a2-3)Gal(b1-4)Glc = target: Kdn(a2-3)Gal(b1-4)Glc
# Summary of the method: as §1
# Kdn(a2-3)Gal(b1-4)GlcNAc = target: Kdn(a2-3)Gal(b1-4)GlcNAc
# Summary of the method: as §1
# [17] = target: Kdn(a2-3)Gal(b1-4)[Fuc(a1-3)]GlcNAc
# Summary of the method: as §1
# Kdn(a2-6)Gal(b1-4)GlcNAc = target: Kdn(a2-6)Gal(b1-4)GlcNAc
# Summary of the method: as §1
# [18] = target: Man(a1-2)Man(a1-2)Man(a1-3)Man
# Summary of the method: as §1
# [19] = target: Man(a1-2)Man(a1-2)Man(a1-6)[Man(a1-3)]Man
# Summary of the method: as §1
# Man(a1-2)Man(a1-3)Man = target: Man(a1-2)Man(a1-3)Man
# Summary of the method: as §1
# [20] = target: Man(a1-2)Man(a1-3)[Man(a1-2)Man(a1-6)]Man
# Summary of the method: as §1
# [21] = target: Man(a1-2)Man(a1-3)[Man(a1-2)Man(a1-6)]Man(a1-6)[Man(a1-2)Man(a1-2)Man(a1-3)]Man
# Summary of the method: as §1
# [22] = target: Man(a1-2)Man(a1-3)[Man(a1-2)Man(a1-6)]Man(a1-6)[Man(a1-2)Man(a1-2)Man(a1-3)]Man(b1-4)GlcNAc(b1-4)GlcNAc
# Summary of the method: as §1
# [23] = target: Man(a1-2)Man(a1-3)[Man(a1-6)]Man(a1-6)[Man(a1-2)Man(a1-3)]Man(b1-4)GlcNAc(b1-4)GlcNAc
# Summary of the method: as §1
# [24] = target: Man(a1-2)Man(a1-6)[Man(a1-3)]Man(a1-6)[Man(a1-2)Man(a1-2)Man(a1-3)]Man
# Summary of the method: as §1
# [25] = target: Man(a1-2)Man(a1-6)[Man(a1-3)]Man(a1-6)[Man(a1-2)Man(a1-2)Man(a1-3)]Man(b1-4)GlcNAc(b1-4)GlcNAc
# Summary of the method: as §1
# Man(a1-3)[Man(a1-6)]Man = target: Man(a1-3)[Man(a1-6)]Man
# Summary of the method: as §1
# [26] = target: Man(a1-3)[Man(a1-6)]Man(a1-6)[Man(a1-2)Man(a1-3)]Man(b1-4)GlcNAc(b1-4)GlcNAc
# Summary of the method: as §1
# [27] = target: Man(a1-3)[Man(a1-6)]Man(a1-6)[Man(a1-3)]Man
# Summary of the method: as §1
# [28] = target: Man(a1-3)[Man(a1-6)]Man(a1-6)[Man(a1-3)]Man(b1-4)GlcNAc(b1-4)GlcNAc
# Summary of the method: as §1
# [29] = target: Man(a1-3)[Man(a1-6)]Man(b1-4)GlcNAc(b1-4)GlcNAc
# Summary of the method: as §1
# [30] = target: Man(a1-3)[Man(a1-6)]Man(b1-4)GlcNAc(b1-4)[Fuc(a1-6)]GlcNAc
# Summary of the method: as §1
# Man(a1-6)Man = target: Man(a1-6)Man
# Summary of the method: as §1
# Man(b1-4)GlcNAc = target: Man(b1-4)GlcNAc
# Summary of the method: as §1
# MurNAc(b1-4)GlcNAc = target: MurNAc(b1-4)GlcNAc
# Summary of the method: as §1
# Neu5Ac(a2-3)Gal = target: Neu5Ac(a2-3)Gal
# Summary of the method: as §1
binder,measurement,setting,value
PX9961J-bvu-499-24-499 (Bacteroides vulgatus) (protein) LNTDPSTAVPSDDAIKNIDDAQVALNGIYRLASAHSYYGDNYLYYADCRGEDVQARINKGAGRRVSPYYFFDVTADDNFNITLVWNQPYKVIHQANSLIEKLDAGNAGNARPEEVARIKSEALAMRGLALFDLTRLFGMPYTLDNGASLGVPIEIQTTLEDHAPERNTVAQCYEQVLKDLNDALGGLTKEKHDAYMNYWSVKALLSRVYLYMNDNENALKCAEEVINDNGGIYRLFTHDEYPSVWGKDFNSESLFEFYFTMSEPSGGSGGEGAPMVYADNVKDWNNLILTKAYLDLLNEDPEDVRHVFPHLPENAVADTLPVAAKGQPKYLIKYPGKSGSVTDAVSTVNPQDNDLCILRLSEVYLNAAEAAFKIGNTEKALTYLNAIVTRANPAKSVTSADLSLERILKERRKELVGEGHAFFDYMRNGKSVDRSGGWHLTMPEDARVIAPSDPRVALPIPQTEIDANPNIVQNPR,glycan array binding signal (z-score),[1],0.301
same,glycan array binding signal (z-score),[2],0.1
same,glycan array binding signal (z-score),[3],-0.012
same,glycan array binding signal (z-score),[4],-0.17
same,glycan array binding signal (z-score),[5],-0.322
same,glycan array binding signal (z-score),[6],0.057
same,glycan array binding signal (z-score),GlcNAc(b1-3)GalNAc,0.43
same,glycan array binding signal (z-score),GlcNAc(b1-3)Man,-0.663
same,glycan array binding signal (z-score),[7],1.04
same,glycan array binding signal (z-score),[8],0.347
same,glycan array binding signal (z-score),[9],-0.107
same,glycan array binding signal (z-score),[10],-0.654
same,glycan array binding signal (z-score),GlcNAc(b1-4)GlcNAc,-0.334
same,glycan array binding signal (z-score),[11],-0.56
same,glycan array binding signal (z-score),[12],-0.798
same,glycan array binding signal (z-score),[13],-0.457
same,glycan array binding signal (z-score),[14],0.069
same,glycan array binding signal (z-score),[15],-0.638
same,glycan array binding signal (z-score),GlcNAc(b1-6)GalNAc,-0.396
same,glycan array binding signal (z-score),[16],0.557
same,glycan array binding signal (z-score),Kdn(a2-3)Gal(b1-3)GalNAc,-0.431
same,glycan array binding signal (z-score),Kdn(a2-3)Gal(b1-3)GlcNAc,-0.688
same,glycan array binding signal (z-score),Kdn(a2-3)Gal(b1-4)Glc,-0.405
same,glycan array binding signal (z-score),Kdn(a2-3)Gal(b1-4)GlcNAc,-0.232
same,glycan array binding signal (z-score),[17],-0.119
same,glycan array binding signal (z-score),Kdn(a2-6)Gal(b1-4)GlcNAc,0.625
same,glycan array binding signal (z-score),[18],-0.579
same,glycan array binding signal (z-score),[19],0.386
same,glycan array binding signal (z-score),Man(a1-2)Man(a1-3)Man,-0.194
same,glycan array binding signal (z-score),[20],-0.206
same,glycan array binding signal (z-score),[21],-0.302
same,glycan array binding signal (z-score),[22],0.022
same,glycan array binding signal (z-score),[23],-1.02
same,glycan array binding signal (z-score),[24],-0.372
same,glycan array binding signal (z-score),[25],-0.359
same,glycan array binding signal (z-score),Man(a1-3)[Man(a1-6)]Man,-0.77
same,glycan array binding signal (z-score),[26],-0.012
same,glycan array binding signal (z-score),[27],0.83
same,glycan array binding signal (z-score),[28],-0.181
same,glycan array binding signal (z-score),[29],-0.104
same,glycan array binding signal (z-score),[30],-0.418
same,glycan array binding signal (z-score),Man(a1-6)Man,-0.426
same,glycan array binding signal (z-score),Man(b1-4)GlcNAc,0.396
same,glycan array binding signal (z-score),MurNAc(b1-4)GlcNAc,-0.701
same,glycan array binding signal (z-score),Neu5Ac(a2-3)Gal,-0.446
